Data on 34 variants can be found in the RNAGym collection of RNA variant scans (doi:10.1093/nar/gkz1192).

B1: CPEB3 Ribozyme (parent)
chain: UAACAGGGGGCCACAGCAGAAGCGUUCACGUCGCAGCCCCUGUCAGAUUCUGGUGAAUCUGCGAAUUCUGCUGUAUAUCUC

Read counts are not given, so values of variants with three or more changes are uncertain.

In this data set the parent is B1. As to the kind of experiment: self-cleavage, relative activity (ratio to wild type); higher = more cleavage; in vitro, sequencing. The gist of the method: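 After error-prone PCR and barcoding, CPEB3 ribozyme mutant libraries were transcribed with T7 RNA polymerase at 37°C for 5 hours, then given 15 min with DNase I before an EDTA stop, and they cleaved during both steps. Reverse transcription with template switching preceded Illumina sequencing. Relative activity divides a variant's cleaved/total read fraction by the unmutated ribozyme's. At least 5 reads were required per variant, and three batches were averaged.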
Regarding UAACAGGAGGCCACCGCAGAAGCGUUCACGUCGCAGCCCCUGUCAGAUUCUGGUGAACCUGCGAAUUCUGCUGUAUAUCUC [G8A A15C U58C], the self-cleavage was determined as 0.08.

For UAACAGGAGGCCACAGCAGGAGCGUACACGUCGCAGCCCCUGUCAGAUUCUGGUGAAUCUGCGAAUUCUGCUGUAUAUCUC [G8A A20G U26A], the self-cleavage stood at 0.07. Regarding UAACAGGAGGCCACGGCACAAGCGUUCACGUCGCAGCCCCUGUCAGAUUCUGGUGAAUCUUCGAAUUCUGCUGUAUAUCUC [G8A A15G G19C G61U], the self-cleavage was determined as 0.08.

For UAACAGGAGGCCACAGCCGAAGCGUUCACGUCGCAGCCCCUGGCGGAUUCUGGUGAAUCUGCGAAUCCUGCCGUAUAUCUC [G8A A18C U43G A45G U67C U72C], the self-cleavage amounted to 0.13. Consider UAACAGGAGGCCACUGCGGAAGCGUUCACGUCGCAGCCCCUGUCAGAUUCUGGUGAAUCUGCGAAUUCUGCUGUAUAUCUC [G8A A15U A18G], for which the self-cleavage was 0.03. Next, UAACAGGAGGCCACAGCGGAGGCGUUCACGUCGCGGCCCCUGUCAGAUUCUGGUGAAUCUGCGAAUUCUGCUUUAUAUCUC [G8A A18G A21G A35G G73U]: 0.05.

Consider UAACAGGAGGCCACAGCAGGAGCGAUCACGUCGCAGCCCCUGUCAGAUUCUGGUGAAUCAGCGAAUUCAGCUGUAUAUCUC [G8A A20G U25A U60A U69A], for which the self-cleavage was 0.05.

As for UAACAGGAGGCCACAGCAGAGGCGUUCACGUCGCAGCCCCUGUCUGAUUCUGGUGAAUCUGCGAAUUCUGCUGUAUGUCUC [G8A A21G A45U A77G], the self-cleavage came out at 0.15. Turning to UAACAGGAGGCCUCAGCAGAAGCGUUCACGUCGCGGCCCCCGUCAGACUCUGGUGAAUCUGCGAAUUCUGCUGUAAAUCUC [G8A A13U A35G U41C U48C U76A], the self-cleavage is 0.21. Next, UAACAGGAGGCCACAGCGGAAGCGUUCACGUCGCAGCCCCUGUCAGGUUCUGGUGAAUCUGCGAAUUCUGCUGUAUAUCUC [G8A A18G A47G]: 0.06. In the case of UAACAGGAGGCCACUGCAGAAGCGUUCACGUCGCAGCCCCUGUCAGAUUCUGGUGAAUCUGCGAAUUCUGCUGUAUAUCCC [G8A A15U U80C], the self-cleavage turned out to be 0.47. Next, UAACAGGAGGCCACAGCAGGAGCGUUCACGUCGCAGCCCCUGUCAGAUUCUGGUGGAUCUGCGAAUUCAGUUGUAUAUCUC [G8A A20G A56G U69A C71U]: 0.05. Consider UAACAGGAGGCCACAGCAGGAGCGUUCACGUCGCAGUCCCAGUCAGAUACUGGCGAAUCUGCGAAUUCUGCUGUAUAUCUC [G8A A20G C37U U41A U49A U54C], for which the self-cleavage came out at 0.06. As to UAACAGGAGGCCACAGCUGAAGCGUUCACGUCGCAGCCCCUGUCAGAUUCUGGUGGAUCUGCGAAUUCUGCUGUAUAUCUC [G8A A18U A56G], the self-cleavage turned out to be 0.23.

UAACAGGAGGCCUCAGCAGUAGCGUUCACGUCGCAGCCCCUGUCAGGUUCUGGUGGAUCUGCGAAUUCUGCUGUAUAUCUC [G8A A13U A20U A47G A56G]: the self-cleavage came to 0.07. As for UAACAGGAGGCCACGGCAGAAGCGUUCGCGUCGCAGCCCCUGUCAGAUUCUGGUGAAUCUGCGAAUUCUGCUGUAUAUCCC [G8A A15G A28G U80C], the figure is 0.58; as for UAACAGGAGGCCACUGCAGAAGCGUUCACGUCACAGCCCCUGUCAGAUUCUGGUGAAUCUGCGAAUUCUGCUGUAUAUCUC [G8A A15U G33A], 0.1; as for UAACAGGAGGCCACUGCAGAGGCGAUCACGCCGCAGCCCAUGUCAGAUUCUGGUGAAUCUGCGAAUCCUGCUGUAUAUCUC [G8A A15U A21G U25A U31C C40A U67C], 0.04. For UAACAGGAGGCCACAGCGGAAGCGUUCACGUCGCAGCCCCUGUCAGAUUCUGGUGAAUCUGCGAAUUCUGCUGGAUAUCUC [G8A A18G U74G], the self-cleavage was found to be 0.08.

As to UAACAGGAGGCCACGGCAGAAGCGUUCACGCCGCAGCCCCUGUCAGAUUCUGGUGAAUCUGCGAAUUCUGCUGUAAAUCUC [G8A A15G U31C U76A], the self-cleavage worked out at 0.09. UAACAGGAGGCCACAGCAGGAGCGUACACGUCGCAGCCCCUGCCAGAUUCUGGUGAAUCUGCAGAUUCUGCUGUAUUUCUC [G8A A20G U26A U43C G63A A64G A77U]: the self-cleavage came out at 0.03. Next, UAACAGGAGGCCACAGCAGUAGCGUUCACGUCGCUGCCCCUGUCAGAUUCUGGUGAAUCCGCGGAUUCCGCUGUAUAUCUC [G8A A20U A35U U60C A64G U69C]: 0.05.

Consider UAACAGGAGGCCACAGCAGGAGCGUUCACGUCGCAGCCCCUGUCAGAUCCUGGUGAAUCUGCGAAUUCUGCUGUAUAUCUC [G8A A20G U49C], for which the self-cleavage is 0.3. As for UAACAGGAGGCCACAGCGGAAGCGUUCACGUCUCAGCCCCUGACAGAUUCUGGUGAAUCUGCGAAUUCUGCUGUAUAUCUC [G8A A18G G33U U43A], the figure is 0.05; as for UAACAGGAGGCCACUGCUGAAGCGUUCACGUCGCAGCCCCUGUCAGAUUCUGCUGAAUCUGCGAAUUCUGCUGUAUAUCUC [G8A A15U A18U G53C], 0.05. As for UAACAGGAGGCCACAGCAGUAGCGUUCAAGUCGCAGCCCCUGUCAGAUUCUGGUGAACCUGCAAAUUCUGCUGUAUAUCCU [G8A A20U C29A U58C G63A U80C C81U], the figure is 0.04.

Regarding UAACAGGAGGCCACAGCAGAGGCGUUCACGUCGCAGCCCCUGUCAGAUUCCGGUGAGUCUGCGUAUUCUGCUGUAUAUCUU [G8A A21G U51C A57G A64U C81U], the self-cleavage was determined as 0.25. Next, UAACAGGAGGCCACUGCAGAAGCGUUCACGUCGCUGCCCCUGUCAGAUUCUGGCGAAUCUGCGGAUUCUGCUGUAUAUCUC [G8A A15U A35U U54C A64G]: 0.

Consider UAACAGGAGGCCACGGCAGAAGCGUUCACGUCGCAGCCCCUGUCGGAUUCUUGUGAAUCCGCGAAUUCUGCUGUAUAUCUC [G8A A15G A45G G52U U60C], for which the self-cleavage turned out to be 0.1. For UAACAGGAGGCCACAGCAGAGGCGUACACGUCGCAGCCCCUGUCAGACUCUGGUGAAUCUGCGAAUUCUGCUGUAUAUCUC [G8A A21G U26A U48C], the self-cleavage stood at 0.06. As for UAACAGGAGGCCACAGCGGAAGCGUUCACGUCGCAGCCCCUGUCAGAUUCUGGUGAAUCUGCGAAUUCAGCUGUAUAACUC [G8A A18G U69A U78A], the self-cleavage is 0.09. For UAACAGGAGGCCACAGCGGAAGCGUUCACGUCGUAGCCCCUGUCAGAUUCUGGUGAGUCUGCGAAUUCUGCUGUAUAUCUU [G8A A18G C34U A57G C81U], the self-cleavage was 0.04. As for UAACAGGAGGCCACAGCGGAAGCGUUAACGUCGCAGCCCCUGUCGGAUUCCGGUGAAUCUGCGAAUUCUGCGGUAUAUCUC [G8A A18G C27A A45G U51C U72G], the figure is 0.05. Take UAACAGGAGGCCACUGCAGAAGCGUUCACGUCGCAGCCCCUGCCAGAUUCUGGUGAAUCUGCGAAUCCUGCUGUAUGUCUC [G8A A15U U43C U67C A77G]: the self-cleavage was determined as 0.04.
